# The supplement of paper PMC12217912
# Some of the results follow. The full chains were built here from the parent and the listed change. Values near 0.05 are background.
# B1: TEV protease; numbered along this chain (parent)
# chain: MGESLFKGPRDYNPISSSICHLTNESDGHTTSLYGIGFGPFIITNKHLFRRNNGTLVVQSLHGVFKVKDTTTLQQHLVDGRDMIIIRMPKDFPPFPQKLKFREPQREERICLVTTNFQTKSMSSMVSDTSCTFPSGDGIFWKHWIQTKDGQCGSPLVSTRDGFIVGIHSASNFTNTNNYFTSVPKNFMELLTNQEAQQWVSGWRLNADSVLWGGHKVFMVKPEEPFQPVKEATQL
# Variants of: B1
# Test: raw area under fraction-flipped curve 0-4 h after induction (AUC4h, not background-subtracted), DNA-recorder readout of cleavage of the substrate (dimensionless); higher = more cleavage of the substrate by the protease variant
# Details: temperature: 34 °C; time window: 0-4 h after rhamnose induction
# Method: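 In vivo DNA recorder in E. coli TOP10(DE3) ΔrhaA at 34 °C. Each TEVp single-site mutant (parent TEVp 0) is paired with a single-site variant of the 7-mer TEVs (canonical ENLYFQ|S). The substrate sits between flexible linkers in a Bxb1-sfGFP-TEVs-SsrA fusion, so cleavage stabilises Bxb1 and speeds flipping of a recombination array, read by NGS. The value is the raw area under the fraction-flipped curve over 0-4 h after rhamnose induction (AUC4h), with ≥20 reads per time point. It is not background-subtracted; inactive controls average about 0.047.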
# 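Also: Bxb1 expression induced with 0.2% (w/v) L-rhamnose at OD600 near 0.5, cultures sampled hourly, flipped fraction per protease–substrate barcode pair counted by paired-end Illumina sequencing.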
Variant,area with substrate ENLYFQA,area with substrate ENLYFQC,area with substrate ENLYFQD,area with substrate ENLYFQE,area with substrate ENLYFQF,area with substrate ENLYFQH,area with substrate ENLYFQI,area with substrate ENLYFQM,area with substrate ENLYFQN,area with substrate ENLYFQR,area with substrate ENLYFQS,area with substrate ENLYFQT,area with substrate ENLYFQV,area with substrate ENLYFQG,area with substrate ENLYFQL,area with substrate ENLYFQP,area with substrate ENLYFQW,area with substrate ENLYFQY,area with substrate ENLYFQK
L5G,0.0799,0.125,0.0798,0.0711,0.0798,0.1,0.0686,0.0795,0.079,0.0698,0.101,0.0652,0.0562,,,,,,
D82T,0.0559,0.0486,0.0561,,,,0.0621,0.0514,0.0412,,0.0571,0.059,0.0464,0.0609,0.0511,0.0605,0.0588,0.0799,
Q118E,0.0939,0.102,,,,0.0723,,,,0.0645,0.0986,,0.0754,0.0915,0.0461,,0.0648,,0.0505
L191H,0.0648,0.0639,,0.0749,,,,0.0398,0.0617,0.0554,0.0643,0.0438,,0.0674,0.0513,0.0629,0.0618,0.0575,0.0505
I36G,0.0451,0.0474,,,,0.0533,0.0484,,0.016,,0.0471,,0.0455,0.0526,,,,,
D27F,0.0924,0.111,0.0568,,,,0.0806,,0.0767,0.0559,0.0972,0.0603,,0.0979,,0.065,,0.0634,0.0591
V126D,0.0869,,0.0864,,,,0.0656,0.0945,,0.0558,0.099,0.0701,0.062,,,,,0.117,0.0589
I19D,0.0442,0.0274,0.0622,,0.0518,,0.044,0.0385,0.0489,0.0467,0.0466,0.0391,,0.0458,0.0481,,0.0549,0.0479,0.0488
L156F,0.087,0.0581,,,,,,0.0697,0.0468,0.0569,0.0649,0.0724,,0.0741,0.0607,,0.0577,,0.0471
T30H,0.0873,0.0891,0.0721,,,0.0757,0.0645,0.0831,0.0834,0.0587,0.0981,0.0655,0.0653,0.0788,0.0641,0.0538,0.0645,,0.0406
S18D,0.0939,0.1,,,,,0.0601,0.0697,0.0686,0.0584,0.0882,,,,0.0667,,0.0348,0.0504,
L33T,0.206,,,,,0.064,,,,,0.121,0.0544,,,0.0581,,0.0549,,0.0677
N116I,0.0713,,,,,,0.0613,,0.0786,,0.0912,,,,,,,,
I86H,0.0578,0.0492,,0.0458,,,0.0367,0.0378,0.0314,0.0401,0.0444,0.042,0.0428,0.0342,0.0407,,0.0212,,0.0407
M188K,0.0792,0.144,,,,0.074,0.0559,0.0905,0.0584,0.0571,0.101,0.0685,0.0654,0.105,0.0593,,0.0395,0.0797,0.0584
